By inhibition is commonly meant the drop in the measured response relative to a control, in per cent.

Among all 340,000 compounds or so, about 6,900 (2%) were called active. No stated cut-off is given here; in the data, active means inhibition above about 30%; inactive means below that, where a call was filed. This is a selection; strong and weak results do not stand in their true shares. The source gives no active or inactive call for entries shown without one.

The target of this experiment is D(2) dopamine receptor (Homo sapiens) (UniProt P14416). Briefly: HTS Assay for Allosteric Antagonists of the Human D2 Dopamine Receptor: Primary Screen for Antagonists. Further: 0% is about no effect. Particulars: HEK293 TREx D2 cells, calcium flux, dopamine EC80; at 10 µM; stronger effect = higher value. The essentials: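 Calcium mobilization kinetics were recorded at 1 s intervals in tetracycline-induced HEK293 T-REx D2 cells, first for 180 s after compound addition and then 180 s after EC80 dopamine.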
Chain of UniProt P14416 (P14416 whole entry, looked up): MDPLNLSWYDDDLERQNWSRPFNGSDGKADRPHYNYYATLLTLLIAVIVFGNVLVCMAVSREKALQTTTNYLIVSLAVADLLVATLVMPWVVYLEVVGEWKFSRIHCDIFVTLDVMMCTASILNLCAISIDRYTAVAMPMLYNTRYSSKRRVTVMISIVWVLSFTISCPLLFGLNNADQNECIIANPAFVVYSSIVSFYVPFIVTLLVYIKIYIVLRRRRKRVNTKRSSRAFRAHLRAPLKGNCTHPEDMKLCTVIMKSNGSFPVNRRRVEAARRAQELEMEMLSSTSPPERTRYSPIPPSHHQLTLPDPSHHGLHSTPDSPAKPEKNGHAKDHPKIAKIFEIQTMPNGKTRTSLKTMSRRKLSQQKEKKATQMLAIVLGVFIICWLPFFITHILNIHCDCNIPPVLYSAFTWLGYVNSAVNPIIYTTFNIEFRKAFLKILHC
In the case of `CCOc1ccc(N(CC)S(=O)(=O)N2CCCC(C(=O)NCc3ccc(SC)cc3)C2)cc1` (stereo not given), the inhibition was -13.8%.
Turning to `COc1cccc(CNC(=O)NCc2noc3ccc(C)cc23)c1`, the inhibition is -7.05%.
For `COc1ccc(NC(=O)c2cc(C3CC3)nc3c2c(C)nn3-c2ccc(C)cc2)cc1OC` the value was -0.27%; for `CN(C)c1ccc(CNC(=O)C2CCN(S(=O)(=O)c3cn(C)cn3)CC2)cc1`, -1.68%.
For `COc1ccccc1CNC(=O)c1oc2c(c1C)-c1nn(Cc3ccc(Cl)cc3)cc1CC2` the value was 18.5%; for `Cc1ccc(C)c(CN2C(=O)c3ccccc3S(=O)c3ccc(C(=O)NCCc4ccc(Cl)cc4)cc32)c1` (stereo not given), 18.1%.
Turning to `COc1ccc(NC(=O)c2sc3nc(-c4cc5cccc(OC)c5oc4=O)[nH]c(=O)c3c2C)cc1`, the inhibition was -15.9%.
As for `Cc1c(NS(C)(=O)=O)cccc1-c1nc2ccccc2s1`, the figure is 12.4%.
As for `COc1ccccc1-c1cc(C(F)(F)F)nc(S(=O)(=O)CCCC(=O)Nc2ccc(F)c(Cl)c2)n1`, the figure is 2.9%.
As for `COc1ccc(C(=O)N2CCC(c3c[nH]c4ccccc34)(c3c[nH]c4ccccc34)CC2)cc1`, the figure is 5.86%; as for `COc1ccc(C(=O)NCCSc2c(C)[nH]c3ccccc23)cc1`, 4.99%.
For `CCCCN(CC)CCCNC(=S)Nc1ccc2nc(N3CCN(C)CC3)cc(C)c2c1`, the inhibition was active: 39.6%.
For `COCCn1ccc2c(OCC(=O)NCc3ccc(F)cc3)cccc2c1=O` the value was 3.77%.
On to `Cc1ccc(NC(=O)Nc2nnc(SCC(=O)N3CCC(C)CC3)s2)cc1`, for which the inhibition came out at 27.2%.
For `O=c1c2cc3c(nc2ncn1Cc1ccccc1F)CCCC3` the value was 0.445%.
As for `CCOC(=O)c1cnc2c(ccc3ccccc32)c1Nc1ccc(OC)c(OC)c1`, the figure is 7.18%.
For `Cc1cccc(C2C=C(c3ccc(F)cc3)Nc3nc4ccccc4n32)c1` (stereo not given) the value was 3.77%; for `CCOc1ccc(NS(=O)(=O)c2cc(NC(=O)CCS(=O)(=O)c3ccc(C)cc3)ccc2OC)cc1`, active: 32.9%; for `CCOc1ccc(Cn2c(CNS(=O)(=O)c3ccc([N+](=O)[O-])cc3)nc3cccnc32)cc1`, 6.1%.
In the case of `CCN1CCN(c2cc(C)c3cc(NC(=O)/C=C/c4cccc(Cl)c4)ccc3n2)CC1`, the inhibition was -0.818%.
For `Cc1ccc(NC(=O)Cn2cc(S(=O)(=O)N3CCCC3)c(S(=O)(=O)N3CCCC3)c2)cc1C` the value was 5.88%; for `CCOc1ccc(NC(=O)c2ccc(-c3cccc(Cl)c3C)o2)cc1`, 1.11%.
For `O=C(O)/C(=C/c1ccco1)NC(=O)c1ccccc1` the value was active: 33.7%.
For `COc1ccc(-n2cc(C(=O)NC(C)c3ccccc3)c3ccccc3c2=O)cc1` (stereo not given), the inhibition was -11.1%.
As for `O=C(NC1CCCC1)c1ccc(CSc2nc3ccncc3n2Cc2ccc(F)cc2)cc1`, the figure is -4.35%.
As for `CCOc1ccccc1CN(CCc1ccc2c(c1)OCO2)Cc1cccc(OC)c1OC`, the figure is -6.4%; as for `CN(C)c1ccc(NC(=O)CSC2=Nc3ccccc3C3=NC(CC(=O)NCc4ccccc4)C(=O)N23)cc1` (stereo not given), -16.3%.
For `CCOC(=O)c1c(C)[nH]c(CCC(=O)NCc2ccccc2C)c1C` the value was -6.16%; for `CCN1CCC(N(Cc2ccc3c(c2)OCO3)C(=O)Nc2ccccc2OC)CC1`, 1.28%.
`COc1cccc(C2CC(=O)N3CN(C4CCCCC4)CSC3=C2C#N)c1` (stereo not given): the inhibition came out at 11%.
As for `COc1cc(NC(=O)C(CCS(C)(=O)=O)N2Cc3ccccc3C2=O)cc(OC)c1OC` (stereo not given), the figure is 2.79%; as for `CC1CN(C(=O)N2CCC(C(=O)NC3CCCCCC3)CC2)c2ccccc2O1` (stereo not given), -13.4%.
As for `COc1cccc(NC(=O)c2cc3c(=O)n(Cc4cccnc4)ccc3nc2C)c1`, the figure is 6%; as for `Cc1n[nH]c(=S)n1/N=C/c1ccc(OCc2ccc(Cl)cc2Cl)cc1`, active: 31.3%; as for `Cc1ccc(-c2nc(S(=O)(=O)c3ccc(C)cc3)c(SCC(=O)NC3CCCCC3)o2)cc1`, 6.29%.
Turning to `COc1ccccc1CNC(=O)CCC1N=C2c3ccccc3N=C(SCC(=O)NCCc3ccc(OC)c(OC)c3)N2C1=O` (stereo not given), the inhibition was 12.3%.
For `COc1cc(NS(=O)(=O)c2ccc3oc(=O)c4ncn(C)c4c3c2)cc(OC)c1` the value was -2.24%; for `CCc1ccc(-c2cc(C)no2)cc1S(=O)(=O)Nc1ccc(Cl)cc1`, -2.6%; for `COc1cc(C(=O)OC(C)C(=O)N2CCCC2)cc2c1OCCO2` (stereo not given), active: 67.1%.
Turning to `CCOc1ccc(C(=O)Nc2ccccc2NC(C)=O)cc1OCC`, the inhibition was active: 103%.
Turning to `COc1ccc(-c2noc(-c3ccc(NC(C)c4ccccc4)c([N+](=O)[O-])c3)n2)cc1OC` (stereo not given), the inhibition is 25.5%.
For `Cc1ccc(-c2nn3c(-c4ccc(C)cc4)nnc3c3ccccc23)cc1` the value was -1.6%; for `COc1ccccc1-n1c(SCC(=O)Nc2ccc(C)cc2)nc(O)cc1=O`, 15.6%; for `COc1cc(NC(=O)c2ccc3c(c2)OCO3)ccc1NC(=O)C(C)C`, active: 64.3%.
`COc1cc(CN(C(=O)c2oc3ccccc3c2C)C2CCS(=O)(=O)C2)cc(OC)c1OC` (stereo not given): the inhibition was 0.357%.
As for `CC(=O)Nc1ccc(S(=O)(=O)NCCc2csc3nc(-c4cccc(C)c4)nn23)cc1`, the figure is -15.4%; as for `O=C(c1ccco1)n1nc(-c2ccccc2)nc1NCc1ccccc1Cl`, 5.71%; as for `Cc1ccc(N(Cc2cccs2)C(=O)COc2ccccc2[N+](=O)[O-])cc1`, 13.9%.
As for `O=C(NCc1ccccc1Cl)C1CCC(CNS(=O)(=O)c2ccc(Br)s2)CC1` (stereo not given), the figure is -3.23%; as for `Cc1cccc(-c2nc(Cn3c(SCc4cc(C)ccc4C)nc4ccncc43)c(C)o2)c1`, -8.08%.
`O=C(NCc1ccccc1)C(=O)NCC(c1cccnc1)N1CCN(c2ccccc2)CC1` (stereo not given): the inhibition came to 11.9%.
For `CCOC(=O)C1CCCN(C(=O)c2cc(Cl)ccc2Cl)C1` (stereo not given) the value was active: 30.8%; for `COc1ccccc1N(CC(O)Cn1ccnc1C)S(=O)(=O)c1ccc(C)cc1` (stereo not given), active: 67.2%; for `CCc1cccc(NC(=O)CN2C=NS(=O)(=O)c3ccccc32)c1`, 9.32%.
As for `Cc1ccc(NC(=O)CCc2c(C)nc3nc(C)nn3c2C)c(Cl)c1`, the figure is -6.22%; as for `Cc1ccc(C)n1-c1nnc(N2CCCC(C(=O)NCc3ccccc3)C2)s1` (stereo not given), 8.25%; as for `COc1cc2nc(NCC(C)c3ccccc3)n3nc(-c4ccccc4)nc3c2cc1OC` (stereo not given), -5.19%.
For `CCOc1nc(NC(=O)NS(=O)(=O)Oc2ccccc2Cl)nc(-c2ccccc2)n1` the value was 9.22%.
`CNC(=O)c1ccc(Nc2nnc(-c3ccc(C)c(S(=O)(=O)N4CCOCC4)c3)c3ccccc23)cc1`: the inhibition is -3.15%.
As for `CCOC(=O)c1ccccc1NC(=O)N(Cc1ccco1)C1CCN(C(C)=O)CC1`, the figure is -7.49%.
For `Cc1ccc(NC(=O)c2ccc(Br)cc2)c(C(=O)c2ccccc2)c1` the value was 27.9%.
For `Cc1nc2nc(SCC(=O)NCc3ccccc3)nn2c(C)c1Cc1ccccc1` the value was -1.68%.
As to `CC(C)CC(=O)Nc1ccc(Cl)c(-c2nc3ccccc3[nH]2)c1`, the inhibition is 15.9%.
For `COc1ccc(OC)c(CNC(=O)CN2C(=O)CCn3nc(-c4cn(C)c5ccccc45)cc32)c1` the value was -17.3%; for `N#Cc1ccc(NS(=O)(=O)c2ccc(-c3cnc(C4CC4)o3)cc2)cc1`, 26.4%.
For `Cc1nc2cc(C(=O)O)ccc2n1-c1ccc(C(C)C)cc1` the value was -4.25%; for `CCOC(=O)c1sc(NC(=O)c2cc3nc(-c4ccc(Br)cc4)cc(C(F)(F)F)n3n2)c(C(=O)OCC)c1C`, 11.7%.
As to `CCOC(=O)CCn1nc(C)c2c(C)n(-c3ccccc3)nc2c1=O`, the inhibition turned out to be 11.2%.
As for `Cc1cccc(N2CCN(C(=O)Cn3c(=O)c4cccn4c4ccc(F)cc43)CC2)c1C`, the figure is 12.5%; as for `COc1ccccc1C(=O)NC(=O)Nc1ccc(-n2nc(C(F)(F)F)cc2C(F)(F)F)cc1`, 3.2%; as for `Cc1ccc(N2CC(NC(=O)CCc3ccccc3)CC2=O)cc1` (stereo not given), 15.8%.
Consider `COc1cccc(CSc2nc3n(n2)C(c2cccnc2)C(C(=O)Nc2ccccc2C)=C(C)N3)c1` (stereo not given), for which the inhibition was 14.9%.
As for `COc1ccc(-c2ccc3c(N)c(C(=O)Nc4cccc(C)c4)sc3n2)cc1`, the figure is 2.43%.
For the compound `O=C(NCCN1CCN(c2ccccc2)CC1)c1cccc(Cl)c1`, the inhibition is active: 70.4%.
For `CC1=C(C(=O)NCc2ccc(Cl)cc2)C2(CCCCCC2)OC1=O` the value was 1.95%; for `CCN(CC(=O)Nc1cc(Cl)ccc1C)C(=O)C1CC1`, active: 55.7%; for `COc1ccccc1C(=O)Nc1ccc(C(=O)OCc2cc(=O)n3ccsc3n2)cc1`, 7.19%.
As to `Cc1ccc(NC(=O)c2cc(S(=O)(=O)NC3CCCCCC3)ccc2F)cc1F`, the inhibition is -23.2%.
As for `CCOc1ccc(-c2nnc(SCC(=O)NCc3ccc(Cl)cc3)o2)cc1`, the figure is 25.5%; as for `COc1ccc2[nH]cc(CCN=C(NC(=O)c3cccc(Cl)c3)Nc3nc(C)cc(C)n3)c2c1`, -19.8%.
Take `C=C1C(=O)C=C[C@]2(C)C[C@@H]3OC(=O)[C@](C)(O)[C@H]3C[C@@H]12`: the inhibition is active: 36.7%.
As for `O=C(CCN1CCN(c2ccccc2)CC1)Nc1nccs1`, the figure is active: 92.6%; as for `O=C(Nc1ccc(Br)cc1)c1cc2nc(-c3ccccc3)cc(-c3ccccc3)n2n1`, 0.176%; as for `CCOC(=O)C1CCCN(C(=O)Cn2c(=O)cc(C)c3c(C)nn(C)c32)C1` (stereo not given), 9.78%.
As for `COc1ccc(C(=O)c2cnc3ccc(C)cc3c2S(=O)(=O)c2ccccc2)cc1`, the figure is 0.14%.
Take `COc1ccc(S(=O)(=O)N2CCC(C(=O)NC(C)c3ccccc3)CC2)cc1` (stereo not given): the inhibition is -26.9%.
In the case of `Cc1ccc(CN2C(=O)C(O)(CC(=O)c3ccc(C)cc3)c3ccccc32)cc1` (stereo not given), the inhibition was found to be 9.51%.
For `CC(C)n1nnnc1SCC(=O)N1N=C(c2cccs2)CC1c1cccs1` (stereo not given) the value was active: 38.7%.
As for `CCc1ccccc1NC(=O)CC(C)S(=O)(=O)c1ccc2c(c1)NC(=O)CO2` (stereo not given), the figure is -15.7%; as for `CCc1ccc2occ(CC(=O)Nc3nnc(C)s3)c2c1`, 7.17%.
For `O=C(CSc1nc2c([nH]c3ccccc32)c(=O)n1-c1ccccc1)NCc1ccc(F)cc1` the value was 19.1%; for `CCNC(=O)C1CCN(c2nc3ccccc3nc2C(F)(F)F)CC1`, -11.2%.
Regarding `O=C(CN1C(=O)C2(SCC(=O)N2c2ccccc2)c2ccccc21)Nc1ccccc1C(F)(F)F` (stereo not given), the inhibition was found to be 6.25%.
Turning to `CCOc1ccc(NC(=O)Cn2cc(S(=O)(=O)c3ccc(C)cc3)c(=O)c3cc(F)ccc32)cc1`, the inhibition was found to be 21.6%.
For `CC(=O)c1nn(-c2ccc(OC(F)(F)F)cc2)nc1Nc1ccc(Cl)cc1` the value was 6.84%.
